# Some of the results follow.
# B1: FimD (Bordetella pertussis) (protein)
# chain: MPARVISFCGAALAVWAGLAVQPAMAVDPPVDCGRALGLHFWSSASLISDQTPDGTLIGKPVVGRSLLSKSCKVPDDIKEDLSDNHDGEPVDIVLELGSNYKIRPQSYGHPGIVVDLPFGSTEETGIAIYIDFGSSPMQKVGERQWLYPQKGEVLFDVLTINGDNAEVRYQAIKVGPLKRPRKLVLSQFPNLFTYKWVFMRGTSQERVLAQGTIDTDVATSTIDLKTCRYTSQTVSLPIIQRSALTGVGTTLGMTDFQMPFWCYGWPKVSVYMSATKTQTGVDGVALPATGQAAGMASGVGVQLINGKTQQPVKLGLQGKIALPEAQQTESATFSLPMKAQYYQTSTSTSAGKLSVTYAVTLNYD
# Experiments:
# Experiment in all cases: glycan array binding signal (z-score within array); higher = stronger binding
# Settings in all cases: glycan notation: IUPAC condensed, linker removed
# [1] = target: Gal(b1-4)GlcNAc(b1-2)Man(a1-6)[Man(a1-3)]Man(b1-4)GlcNAc(b1-4)GlcNAc
# Outline: (§1)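 Columns mapping to the same glycan were averaged after glycan names were converted to IUPAC-condensed notation. The data come from 3228 arrays in the Consortium for Functional Glycomics database, limited to those with an available protein sequence. Binding is reported as a within-array Z-score averaged across arrays of one protein sequence and across linkers.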
# [2] = target: Gal(b1-4)GlcNAc(b1-2)[Gal(b1-4)GlcNAc(b1-4)]Man(a1-3)[Gal(b1-4)GlcNAc(b1-2)Man(a1-6)]Man(b1-4)GlcNAc(b1-4)GlcNAc
# Outline: as §1
# [3] = target: Gal(b1-4)GlcNAc(b1-2)[Gal(b1-4)GlcNAc(b1-4)]Man(a1-3)[Gal(b1-4)GlcNAc(b1-2)[Gal(b1-4)GlcNAc(b1-6)]Man(a1-6)]Man(b1-4)GlcNAc(b1-4)GlcNAc
# Outline: as §1
# [4] = target: Gal(b1-4)GlcNAc(b1-2)[Gal(b1-4)GlcNAc(b1-4)]Man(a1-3)[GlcNAc(b1-4)][Gal(b1-4)GlcNAc(b1-2)Man(a1-6)]Man(b1-4)GlcNAc(b1-4)GlcNAc
# Outline: as §1
# [5] = target: Gal(b1-4)GlcNAc(b1-2)[Gal(b1-4)GlcNAc(b1-4)]Man(a1-3)[GlcNAc(b1-4)][Gal(b1-4)GlcNAc(b1-2)[Gal(b1-4)GlcNAc(b1-6)]Man(a1-6)]Man(b1-4)GlcNAc(b1-4)GlcNAc
# Outline: as §1
# [6] = target: Gal(b1-4)GlcNAc(b1-2)[Gal(b1-4)GlcNAc(b1-6)]Man(a1-6)[Gal(b1-4)GlcNAc(b1-2)Man(a1-3)]Man(b1-4)GlcNAc(b1-4)GlcNAc
# Outline: as §1
# [7] = target: Gal(b1-4)GlcNAc(b1-2)[Gal(b1-4)GlcNAc(b1-6)]Man(a1-6)[Gal(b1-4)GlcNAc(b1-2)Man(a1-3)]Man(b1-4)GlcNAc(b1-4)[Fuc(a1-6)]GlcNAc
# Outline: as §1
# [8] = target: Gal(b1-4)GlcNAc(b1-2)[Gal(b1-4)GlcNAc(b1-6)]Man(a1-6)[GlcNAc(b1-4)][Gal(b1-4)GlcNAc(b1-2)Man(a1-3)]Man(b1-4)GlcNAc(b1-4)GlcNAc
# Outline: as §1
# [9] = target: Gal(b1-4)GlcNAc(b1-2)[Gal(b1-4)GlcNAc(b1-6)]Man(a1-6)[GlcNAc(b1-4)][Gal(b1-4)GlcNAc(b1-2)[Gal(b1-4)GlcNAc(b1-4)]Man(a1-3)]Man(b1-4)GlcNAc(b1-4)[Fuc(a1-6)]GlcNAc
# Outline: as §1
# [10] = target: Gal(b1-4)GlcNAc(b1-3)Gal(b1-3)GalNAc
# Outline: as §1
# [11] = target: Gal(b1-4)GlcNAc(b1-3)Gal(b1-3)GlcNAc
# Outline: as §1
# [12] = target: Gal(b1-4)GlcNAc(b1-3)Gal(b1-4)Glc
# Outline: as §1
# [13] = target: Gal(b1-4)GlcNAc(b1-3)Gal(b1-4)GlcNAc
# Outline: as §1
# [14] = target: Gal(b1-4)GlcNAc(b1-3)Gal(b1-4)GlcNAc(b1-2)Man(a1-3)[Gal(b1-4)GlcNAc(b1-3)Gal(b1-4)GlcNAc(b1-2)Man(a1-6)]Man(b1-4)GlcNAc(b1-4)GlcNAc
# Outline: as §1
# [15] = target: Gal(b1-4)GlcNAc(b1-3)Gal(b1-4)GlcNAc(b1-2)Man(a1-3)[Gal(b1-4)GlcNAc(b1-3)Gal(b1-4)GlcNAc(b1-2)Man(a1-6)]Man(b1-4)GlcNAc(b1-4)[Fuc(a1-6)]GlcNAc
# Outline: as §1
# [16] = target: Gal(b1-4)GlcNAc(b1-3)Gal(b1-4)GlcNAc(b1-2)[Gal(b1-4)GlcNAc(b1-3)Gal(b1-4)GlcNAc(b1-6)]Man(a1-6)[Gal(b1-4)GlcNAc(b1-3)Gal(b1-4)GlcNAc(b1-2)Man(a1-3)]Man(b1-4)GlcNAc(b1-4)GlcNAc
# Outline: as §1
# [17] = target: Gal(b1-4)GlcNAc(b1-3)Gal(b1-4)GlcNAc(b1-2)[Gal(b1-4)GlcNAc(b1-3)Gal(b1-4)GlcNAc(b1-6)]Man(a1-6)[Gal(b1-4)GlcNAc(b1-3)Gal(b1-4)GlcNAc(b1-2)Man(a1-3)]Man(b1-4)GlcNAc(b1-4)[Fuc(a1-6)]GlcNAc
# Outline: as §1
# [18] = target: Gal(b1-4)GlcNAc(b1-3)Gal(b1-4)GlcNAc(b1-3)Gal(b1-4)GlcNAc
# Outline: as §1
binder,measurement,setting,value
B1,glycan array binding signal (z-score),[1],-0.347
same,glycan array binding signal (z-score),[2],-0.318
same,glycan array binding signal (z-score),[3],-0.3
same,glycan array binding signal (z-score),[4],-0.22
same,glycan array binding signal (z-score),[5],-0.092
same,glycan array binding signal (z-score),[6],-0.132
same,glycan array binding signal (z-score),[7],0.892
same,glycan array binding signal (z-score),[8],-0.186
same,glycan array binding signal (z-score),[9],-0.601
same,glycan array binding signal (z-score),[10],-0.264
same,glycan array binding signal (z-score),[11],-0.392
same,glycan array binding signal (z-score),[12],-0.049
same,glycan array binding signal (z-score),[13],-0.535
same,glycan array binding signal (z-score),[14],0.708
same,glycan array binding signal (z-score),[15],-0.023
same,glycan array binding signal (z-score),[16],0.404
same,glycan array binding signal (z-score),[17],-0.124
same,glycan array binding signal (z-score),[18],-0.273

# Source: the supplement of paper PMC8728848
